Series [1] relates to IFNγ, IL-6, IL-10 in MV4-11 cell TDCC media. Nature of the series: Cytokine release (MSD) in MV4-11 / PBMC TDCC assay. It is filed as cell-based, human. The conditions noted are these: 48 and 72 hours TDCC; at concentrations that resulted in equal levels of cell killing. The procedure:
MV4-11 leukemia cells were labeled with a PKH26 red fluorescent tag using the PKH26 Red Fluorescent Cell Linker Kit (Sigma-Aldrich, Cat #MINI26-1kt) per manufacturer's instructions. Briefly, 5×10^−6 MV4-11 cells were washed with serum free RPMI-1640 medium (Gibco, REF22400-071). After centrifugation, 0.25 ml of diluent C was added to the cell pellet and was gently pipetted to resuspend. […] 0.25 ml of 2× Dye Solution was rapidly added to 0.25 ml of 2× Cell Suspension, and the sample was immediately mixed. The sample was incubated 5 min and 0.5 ml of heat inactivated FBS was added to stop the staining. The cells were centrifuged and resuspended in culture medium to make final concentration of 2.5×10^−5/ml. […]
Cytokine levels from supernatants harvested from MV4-11 cell TDCC assay at 48 and 72 hours were measured with MSD Proinflammatory Panel 1 (human) Kit (V-PLEX, Cat #K15049D-2). […] 150 uL of 2× Read Buffer T was added to each well of the plate and the plate was analyzed on an MSD instrument.
The calibration curves used to calculate analyte concentrations were established by fitting the signals from calibrators to a 4-parameter logistic model with a 1/Y^2 weighting. Analyte concentrations were determined from the ECL signals by back-fitting to the calibration curve. […]

The nature of series [2]: Pharmacokinetics in Balb/c mice. The class given is in vivo, mouse. The conditions noted are these: 5 mg/kg intravenous bolus. The protocol:
Pharmacokinetic parameters were measured for various CD123×CD3 IgM antibodies in an in vivo mouse model as follows. Balb/c mice were injected with 5 mg/kg of h32716, h32716-4^−2, or h32716-1-1 via intravenous bolus administration. Blood samples were collected at 8 time points total for each antibody, with 2 mice per time point. A sandwich ELISA assay was used to measure the plasma concentration of each antibody at each time point. Quality metrics were verified on all ELISAs, and PK parameters, including t½, clearance (CL), area under the concentration curve (AUC), and maximum concentration (Cmax) were derived using nonlinear curve fitting techniques (WinNonLin, Phoenix Software).

Series [3] concerns the target T1, recombinant human CD123 protein (CD123, Fc-Fusion (IgG1) Avi-Tag, Biotin-Labeled) (Homo sapiens, UniProt P26951).
T1 construct: purchased BPS Bioscience 100068^−2 (so in the source)
T1 sequence (P26951 19-305 limits assumed): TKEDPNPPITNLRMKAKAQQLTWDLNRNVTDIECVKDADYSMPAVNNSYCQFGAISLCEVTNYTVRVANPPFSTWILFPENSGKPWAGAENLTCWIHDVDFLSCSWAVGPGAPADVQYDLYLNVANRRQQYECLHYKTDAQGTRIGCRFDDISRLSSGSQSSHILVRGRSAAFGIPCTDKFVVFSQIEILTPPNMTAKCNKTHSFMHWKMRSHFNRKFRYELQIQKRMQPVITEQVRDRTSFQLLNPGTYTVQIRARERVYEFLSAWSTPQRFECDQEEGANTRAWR
Nature of the series: Biolayer interferometry (Octet) binding kinetics of CD123×CD3 IgM antibodies. The conditions noted are these: CD123×CD3 IgM format; Octet BLI. The protocol:
The binding affinities of parental 32716 IgG and humanized variants with recombinant human CD123 protein (CD123)-His Acrobio #ILA-H52H6) were determined by BLI on an Octet-384 (Sartorius/Fortebio, NY, USA) using Anti-penta His biosensors (Sartorius). PBST (1×PBS+1% BSA+0.05% Tween-20) buffer was used as Antibody/CD123 dilution and sensor hydration buffer. The experiment followed a five-step sequential assay at 24° C. First, biosensors were hydrated for 10 minutes. Samples and buffer were applied in 384-well plate. After initial baseline for 60 s, sensors were loaded with 7 nM hu IL-3R alpha (CD123)-His Acrobio #ILA-H52H6. The biosensors were dipped into PBST for 20 s to reach baseline, then incubated for 420 s with 2-fold serial diluted anti-CD123 antibodies starting at 10 nM for association, followed by 900 s in PBST for dissociation. Results were analyzed by ForteBio Data Analysis software 9.0 using 1:1 global fit model.
The binding affinities of CD123×CD3 IgM antibodies 32716 IgM, h32716-1-1 IgM, and h32716-4^−2 IgM with recombinant human CD123 protein (CD123, Fc-Fusion (IgG1) Avi-Tag, Biotin-Labeled, BPS Bioscience Cat.100068^−2) were determined by BLI on an Octet-384 (Sartorius/Fortebio, NY, USA) using Anti-human Fc (AFC) biosensors (Sartorius Cat #185064) as described in Example 2.
(In general: Biolayer interferometry detects binding as a change in optical thickness at a sensor tip.)

Series [4] relates to MV411 (MV4-11) tumor cells. In words: T cell-directed killing (TDCC) co-culture assay, MV411. It is filed as cell-based, human. The conditions noted are these: T cells E:T 7:1, 72 hours. The procedure: (§1) 7×10^3 tumor cells KG1a and MV4-11 (expressing firefly luciferase) were co-cultured with T cells at 7:1 Effector to target (E:T) ratios in the presence of serial dilutions of anti-CD123×CD3 IgM antibodies in 100 μL total volume of AIM-V cell culture medium (GIBCO, #12055091) supplemented with 3% heat-inactivated fetal bovine serum (FBS, HyClone, #SH3007103HI) per well on a 96 round bottom tissue culture plate. After 72 hours of incubation at 37° C. in a 5% C02 incubator, 50 μl of supernatant was removed and frozen at −80° C. for later cytokine release analysis. 50 μl of luciferase substrate e.g., ONE-Glo EX Luciferase Assay System, Promega was added to the wells. The plates were shaken briefly to mix the reagents, and luciferase luminescent signal was measured on an EnVision plate reader (Perkin-Elmer). The data was then analyzed with GraphPad Prism to determine the EC50. Representative dose response curves for KG1a and MV411 are shown in FIG. 7A-B and max killing percentage and EC50 values are shown in Table 6.

The subject of a further series is KG1a tumor cells. Nature of the series: T cell-directed killing (TDCC) co-culture assay, KG1a. The conditions noted are these: T cells E:T 7:1, 72 hours. It is filed as cell-based, human. The procedure: as §1

B1: h32716-1-1 IgM: humanized anti-CD123×CD3 bispecific pentameric IgM, VH/VL SEQ ID NO: 76/79, J chain with CD3-binding scFv (SEQ ID NO: 84) (antibody)
VH: QVQLVQSGAEVKKPGSSVKVSCKASGYIFTNYGMNWVRQAPGQGLEWMGWINTYTGESTYSADFKGRVTITADESTSTAYMELSSLRSEDTAVYYCARSGGYDPMDYWGQGTLVTVSS
VL: DIVMTQSPDSLAVSLGERATINCRASESVDNYGNTFMHWYQQKPGQPPKLLIYRASNLESGVPDRFSGSGSGTDFTLTISSLQAEDVAVYYCQQSNEDPPTFGQGTRLEIK
chain: EVQLLESGGGLVQPGGSLRLSCAASGFTFDTYAMNWVRQAPGKGLEWVARIRSKYNNYATYYADSVKDRFTISRDDSKSTLYLQMESLRAEDTAVYYCVRHANFGAGYVSWFAHWGQGTLVTVSSGGGGSGGGGSGGGGSQTVVTQEPSLSVSPGGTVTLTCGSSTGAVTTSNYANWVQQTPGQAPRGLIGGTDKRAPGVPDRFSGSLLGDKAALTITGAQAEDEADYYCALWYSNHWVFGGGTKLTVLGGGGSGGGGSGGGGS[about 150 residues not printed]
modifications: IgM constant regions, J chain
For B1, the “production of cytokines (IFNγ, IL-6, IL-10) compared to CD123×CD3 IgG #1” value in series [1] was “much lower levels of cytokines”. Besides, in series [2], the “% Extrap” value is 1.02%; the AUCinf was found to be 30.8 µg·days/mL; the CL came to 0.112 mL/min/kg; the Cmax (in general, the peak of the concentration-time curve) amounted to 76.2 µg/mL. For the same molecule, in series [2], the distribution volume (Vss) (as a rule, a proportionality between amount in the body and measured concentration, not a real space) was 0.1033 L/kg; the t1/2 amounted to 10.5 h. For the same molecule, in series [3], the “kdis” value was under 1e-07 s⁻¹ and the kon (as a rule, the rate constant with which the complex forms) was 3.9e+06 M⁻¹ s⁻¹.

B2: 32716 IgM: parental 32716 anti-CD123×CD3 bispecific pentameric IgM with modified J chain comprising CD3-binding scFv (antibody)
VH: QIQLVQSGPELKKPGETVKISCKASGYIFTNYGMNWVKQAPGKSFKWMGWINTYTGESTYSADFKGRFAFSLETSASTAYLHINDLKNEDTATYFCARSGGYDPMDYWGQGTSVTVSS
VL: DIVLTQSPASLAVSLGQRATISCRASESVDNYGNTFMHWYQQKPGQPPKLLIYRASNLESGIPARFSGSGSRTDFTLTINPVEADDVATYYCQQSNEDPPTFGAGTKLELK
J-chain: EVQLLESGGGLVQPGGSLRLSCAASGFTFDTYAMNWVRQAPGKGLEWVARIRSKYNNYATYYADSVKDRFTISRDDSKSTLYLQMESLRAEDTAVYYCVRHANFGAGYVSWFAHWGQGTLVTVSSGGGGSGGGGSGGGGSQTVVTQEPSLSVSPGGTVTLTCGSSTGAVTTSNYANWVQQTPGQAPRGLIGGTDKRAPGVPDRFSGSLLGDKAALTITGAQAEDEADYYCALWYSNHWVFGGGTKLTVLGGGGSGGGGSGGGGS[about 150 residues not printed]
Take B2: the “max killing (%)” value in series [4] is 100.2%. Moreover, in the series with KG1a tumor cells, a half-maximal response (EC50) required 0.0134 nM and the “max killing (%)” value is reported as 99.03%. In addition, in series [2], the “% Extrap” value worked out at 0.21%, the AUCinf was 38.6 µg·days/mL, the CL amounted to 0.08993 mL/min/kg and the peak concentration (Cmax) amounted to 100.5 µg/mL. In series [2], this molecule came in with a volume of distribution (Vss) of 0.2987 L/kg and a t1/2 of 6.9 h. Moreover, in series [3], the “kdis” value was under 1e-07 s⁻¹ and the “kon” value was 4.1e+06 M⁻¹ s⁻¹.

B3: h32716-4-2 IgM: humanized anti-CD123×CD3 bispecific pentameric IgM, VH/VL SEQ ID NO: 80/83, J chain with CD3-binding scFv (SEQ ID NO: 84) (antibody)
VH: QVQLVQSGPELKKPGASVKVSCKASGYIFTNYGMNWVRQAPGQGLEWMGWINTYTGESTYSADFKGRFVFSLDTSVSTAYLQISSLKAEDTAVYYCARSGGYDPMDYWGQGTLVTVSS
VL: DIQMTQSPSSLSASVGDRVTITCRASESVDNYGNTFMHWYQQKPGKAPKLLIYRASNLESGVPSRFSGSGSGTDFTFTISSLQPEDIATYYCQQSNEDPPTFGQGTKVEIK
chain: EVQLLESGGGLVQPGGSLRLSCAASGFTFDTYAMNWVRQAPGKGLEWVARIRSKYNNYATYYADSVKDRFTISRDDSKSTLYLQMESLRAEDTAVYYCVRHANFGAGYVSWFAHWGQGTLVTVSSGGGGSGGGGSGGGGSQTVVTQEPSLSVSPGGTVTLTCGSSTGAVTTSNYANWVQQTPGQAPRGLIGGTDKRAPGVPDRFSGSLLGDKAALTITGAQAEDEADYYCALWYSNHWVFGGGTKLTVLGGGGSGGGGSGGGGS[about 150 residues not printed]
modifications: IgM constant regions, J chain
In the case of B3, the “max killing (%)” value in series [4] is reported as 100%. In the series with KG1a tumor cells, the EC50 – broadly, the midpoint of the concentration-response curve – amounted to 0.0175 nM and the “max killing (%)” value worked out at 97.84%. For the same molecule, in series [2], the “% Extrap” value is reported as 2.55%, the AUCinf was 29.1 µg·days/mL, the CL stood at 0.1192 mL/min/kg and the Cmax was 61.9 µg/mL. In series [2], this molecule showed a Vss of 0.1266 L/kg and a t1/2 of 15.5 h. Moreover, in series [3], the “kdis” value is 1.69e-05 s⁻¹ and the on-rate constant (kon) came to 3.82e+06 M⁻¹ s⁻¹.

These data come from patent US20240076392A1, “ANTI-CD123 BINDING MOLECULES AND USES THEREOF” (IGM Biosciences, Inc., priority 2021, published 2024).
